Experimental data: the RNAGym collection of RNA variant scans (doi:10.7554/elife.90254)
The source gives no read counts; variants with many changes may rest on few reads.

B1: LINE1-mini (parent)
chain: GGCAGAGCUCAACACAGCGUGGCAAAGUGGCUGUGGCUAGACUGCC

Variants of: B1
Assay: self-cleavage, relative activity (ratio to wild type); higher = more cleavage; in vitro, sequencing; the parent is a self-cleaving ribozyme

| Variant | self-cleavage |
| --- | --- |
| GGCAAAGCUCAACACAGCGUGGCAAAGUUGUUGUGGCUAGACUGCC [G5A G29U C31U] | 0.02 |
| GGCAAAGCUCAACACAGAGUGGCUAAGUGGCUGUGGCUAGACUGCC [G5A C18A A24U] | 0.07 |
| GGCAAAGCUCAAGACAGCGUGGCAAAGUGGCUGUGGUUACACUGCC [G5A C13G C37U G40C] | 0.04 |
| GGCAAAGCUCAACACAGAGUGGCAAAGUUGCUGUGCCUAGACUGCC [G5A C18A G29U G36C] | 0.03 |
| GGCAAAGCUCAACAAAGCGUGGCCAAGUGGCCGGGGCUAGACUGCC [G5A C15A A24C U32C U34G] | 0.02 |
| GGCAAAGCUCAACACAGCGUUGCAGAGUGGCUGUGGCUAGACUGCC [G5A G21U A25G] | 0.05 |
| GGCAAAGCUCAACACAGCGUGGCAAACUGGCUGUGUCUAGACUGCC [G5A G27C G36U] | 0.65 |
| GGCAAAGCUCAACACAGGGUGGCAAAGUGGCUGUGGCUAGAUUGCC [G5A C18G C42U] | 0.32 |
| GGCAAAGCUCAACACAGCUUGGCAAAGUGGCGGUGGCUAGACUACC [G5A G19U U32G G44A] | 0.03 |
| GGCAAAUCUCUACACAGCGUGGCAAAGUGGCUGUGGCUAGACUGCC [G5A G7U A11U] | 0.14 |
| GGCAAAGCUCAACACAGCGUGGCAAAGUGGCUGUUGCUAGACUGAC [G5A G35U C45A] | 0.05 |
| GGCAAAGCUCAACACAGAGUGGCAAAGUCUCUGUGGCUAGACUGUC [G5A C18A G29C G30U C45U] | 0.06 |
| GGCAAAGCUCAACACAGCGUGGGAAAGUGGCUGUCGUUAGACUGCC [G5A C23G G35C C37U] | 0.1 |
| GGCAAAACUCAACACAGCGUGCCAAAGUGGCUGUGGCUAGACUGCC [G5A G7A G22C] | 0.18 |
| GGCAAAGCUCAACAUAGCGUGGUAAACUGGCUGUGGCUAGACUGCC [G5A C15U C23U G27C] | 0.12 |
| GGCAAACCUCAACACAGCGUGGCAAAGUGGCUGUGGCUGGACUGCC [G5A G7C A39G] | 0.1 |
| GGCAAAGCUCAACACAGCGUGACAAAGUGGCUGAGGCUAGACUGCU [G5A G22A U34A C46U] | 0.07 |
| GGCAAAGCUCAACACAGCGUGGCAAAUUGGCUGUCGCUAGACUGCC [G5A G27U G35C] | 0.06 |
| GGCAAAGCUCAACACAGUAUUGCAAAGUGGCUGUGGCUAGACUGCC [G5A C18U G19A G21U] | 0.22 |

| Variant | self-cleavage |
| --- | --- |
| GGCAAACCUCAACACAGCGUGGCAAAGUGGGUGUGGCUAGACUGCC [G5A G7C C31G] | 0.11 |
| GGCAAAGCUCAAGACAGCGUGGCAAAGUGGCUGUGGCCAGACUGCC [G5A C13G U38C] | 0.04 |
| GGCAAAGCUCAACACAGCGUGGCAAAGUGGCUGUGACUAAACUGCC [G5A G36A G40A] | 0.23 |
| GGCAAAACUCGACACUGCGUGGCAAAGUGGCUGUGGCUAGACUUCC [G5A G7A A11G A16U G44U] | 0.03 |
| GGCAAAGCUCAACACAGCGUGGCAAAGUGACUCUGGCUAAACAGCC [G5A G30A G33C G40A U43A] | 0.03 |
| GGCAAAGCUCAACAAAUCGUGGCACACUGGCUGUGGCUAGACUGCC [G5A C15A G17U A25C G27C] | 0.01 |
| GGCAAAGCUCAAAACAGCGUGGCAAAUUGGCUGCCGCUAGACUGCC [G5A C13A G27U U34C G35C] | 0.07 |
| GGCAAAGCCCACCACAGAGUGGCAAAGUGUCUGUCGCUAAACUGCC [G5A U9C A12C C18A G30U G35C G40A] | 0.02 |
| GGCAAAGCUCAACACAGCGUGGCAAAGUGAUUGUUGCUAGACUUCC [G5A G30A C31U G35U G44U] | 0.01 |
| GGCAAAGCUCAACACAGCGUGGCAAAGUGGGUGCGGCUAGAAUGCC [G5A C31G U34C C42A] | 0.03 |
| GGCAAAGCUCAACACAGCGUGGGAAAGUGGCUGUGGCUAAACUGCC [G5A C23G G40A] | 0.11 |
| GGCAAAGCUCAAGACAGCGUGGCAAAGUAGCUGUGGCUAGACUGCC [G5A C13G G29A] | 0.23 |
| GGCAAAGCUCAACAAAGCGUGGCAAAGCGGCUGUGGCAAGACUGCC [G5A C15A U28C U38A] | 0.05 |
| GGCAAAGCUCAACACAGCGUGGAAAAGUGGAUGUGGUUAGACUGCC [G5A C23A C31A C37U] | 0.23 |
| GGCAAAUCUCAACACAGCGUUGCAAAGUGGCUGUGGCUAUACUGCC [G5A G7U G21U G40U] | 0.08 |
| GGCAAAGCACAACAUAGCGUGUAAAAGUGCCUGUUGCUCGACUGCC [G5A U9A C15U G22U C23A G30C G35U A39C] | 0.01 |
| GGCAAAGCUCAACACAGAGUGGCAAAAUGGCUGUGCCUAGAGAGCC [G5A C18A G27A G36C C42G U43A] | 0.01 |
| GGCAAAGCUUAACACAGCCUGGCAAAGUGGCUGUGGCUAGACAGCC [G5A C10U G19C U43A] | 0.02 |
| GGCAAAGCUCAACACAGCUUGGCAAAUUAACUGUGGUUAUACUGCC [G5A G19U G27U G29A G30A C37U G40U] | 0.01 |

| Variant | self-cleavage |
| --- | --- |
| GGCAAAGCUUAAGACAGCGUGGCAGAGUGGCUGUGGCUAGGCUGCC [G5A C10U C13G A25G A41G] | 0.04 |
| GGCAAAGCUUAACACAGCGUGGCGAAGUGGCUGUGCCCACACUGCC [G5A C10U A24G G36C U38C G40C] | 0.01 |
| GGCAAAGCUGAACACAGCGUGGCAAAGCGGCUGUGGAUAGACUGGC [G5A C10G U28C C37A C45G] | 0.01 |
| GGCAAAACUCUACACAGCGUGGCAAAGUGGCUGUGGCUAGACCGCA [G5A G7A A11U U43C C46A] | 0.03 |
| GGCAAACCUCAACACAGCGUGGCAAAGUGGCUGUGGAUAGACUGCC [G5A G7C C37A] | 0.09 |
| GGCAAAGCUCAACAAAGCGUGGCAAAGUGGCUGUGCCUAGACUGCC [G5A C15A G36C] | 0.03 |
| GGCAAAGCUCAACACACCGUGGCAAAGUGGCUGUGGCUAGGCUGCC [G5A G17C A41G] | 0.04 |
| GGCAAAGCUUAACACAGAGUGGCAAAGGGGCUGUGACUAGACUGCC [G5A C10U C18A U28G G36A] | 0.07 |
| GGCAAAGCUCAACACAGCAUGGCAAAGCGGCUGUAGCUAGACUGCC [G5A G19A U28C G35A] | 0.1 |
| GGCAAAGCUGAACACAGCGUGGCAAAGUGGCUUUGGCUAGACUUCC [G5A C10G G33U G44U] | 0.04 |
| GGCAAAGCUCAACACAGCGUGGCAAAGUGGGUGAGGGUAGACAGCC [G5A C31G U34A C37G U43A] | 0 |
| GGCAAAGCUCAACACAGCGUGGCAAAGUGUCUAUGGCUAGACUGCC [G5A G30U G33A] | 0.1 |
| GGCAAAUCUCAACAUAGCGUGGCAUCGUGGUUGUGGCUAGACUGCC [G5A G7U C15U A25U A26C C31U] | 0.13 |
| GGCAAAGCUCAAUACAGCGUGGCAAAGUGGCUGUGGCUAGUCUGCC [G5A C13U A41U] | 0.08 |
| GGCAAAGCUCAACACAGCGUGGCAAAGUGGGUGUGGCUAGUCUGCU [G5A C31G A41U C46U] | 0.05 |
| GGCAAACCUCAACACAACUUGGCAAAGUGGCUGUGGCUAGACUGCC [G5A G7C G17A G19U] | 0.15 |
| GGCAAAGCUCAACACAGCGUGGAUAAGUGGCUGGGGCUAGACUGCC [G5A C23A A24U U34G] | 0.05 |
| GGCAAAGCCCCACACACCGUGGCAAAGUGGUUGUGGCUAGACUGCC [G5A U9C A11C G17C C31U] | 0.03 |
